The supplement of paper PMC12230231
± gives the standard deviation of the averaged measurements. Restriction of a single-cycle SIVsab GFP reporter by TRIM5α v1-loop variants in CRFK cells. Human variants: read share among cells still uninfected after two challenges over input, higher = gained restriction. Rhesus variants: share among infected cells over input, higher = lost restriction. Reporter dose not given per row. No active / inactive call per row; the paper calls a change when both replicates lie above its controls (mean + 2 SD of stop or wild-type variants, or the top frameshift score). Residues outside the varied loop are taken from Swiss-Prot. The paper reads the human single-substitution scores as noise; they and the rhesus combinations repeat poorly (rank correlation 0.3 to 0.4), indel scores repeat only for the top variants, rhesus substitutions well (0.9).

Tested on: SIVsab (simian immunodeficiency virus of sabaeus monkeys), single-cycle GFP reporter, in CRFK cells
Assay: enrichment among uninfected cells over input (fold); higher = stronger restriction
Protocol: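 Pools of CRFK cells expressing variants of the TRIM5α v1 loop were challenged with the single-cycle reporter, sorted by GFP and sequenced; mean of two replicates.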

[1] = library: insertions and deletions

Row | Sequence | enrichment [1] | enrichment (library: human / rhesus combinations)
1 | MASGILVNVKEEVTCPICLELLTQPLSLDCGHSFCQACLTANHKKSMLDKGESSCPVCRISYQPENIRPNRHVANIVEKLREVKLSPEGQKVDHCARHGEKLLLFCQEDGKVICWLCERSQEHRGHHTFLTEEVAREYQVKLQAALEMLRQKQQEAEELEADIREEKASWKTQIQYDKTNVLADFEQLRDILDWEESNELQNLEKEEEDILKSLTNSETEMVQQTQSLRELISDLEHRLQGSVMELLQGVDGVIKRTENVTLKKPETFPKNQRRVFRAPDLKGMLEVFRELTDVRRYWVDVTVAPNNISCAVISEDKRQVSSPKPQIIYGARGTRYQTFVNSQSITSGKHYWEVDVSKKTAWILGVCAGFQPDAMCNIEKNENYQPKYGYWVIGLEEGVKCSAFQDSSFHTPSVPFIVPLSVIICPDRVGVFLDYEACTVSFFNITNHGFLIYKFSHCSFSQPVFPYLNPRKCGVPMTLCSPSS [human TRIM5α, 9-codon deletion at 342] | 6.88 ± 8.8 | –
2 | MASGILVNVKEEVTCPICLELLTQPLSLDCGHSFCQACLTANHKKSMLDKGESSCPVCRISYQPENIRPNRHVANIVEKLREVKLSPEGQKVDHCARHGEKLLLFCQEDGKVICWLCERSQEHRGHHTFLTEEVAREYQVKLQAALEMLRQKQQEAEELEADIREEKASWKTQIQYDKTNVLADFEQLRDILDWEESNELQNLEKEEEDILKSLTNSETEMVQQTQSLRELISDLEHRLQGSVMELLQGVDGVIKRTENVTLKKPETFPKNQRRVFRAPDLKGMLEVFRELTDVRRYWVDVTVAPNNISCAVISEDKRQVSSPKPQIIYQARGTRYPSFVNFNYCTGILGSQSITSGKHYWEVDVSKKTAWILGVCAGFQPDAMCNIEKNENYQPKYGYWVIGLEEGVKCSAFQDSSFHTPSVPFIVPLSVIICPDRVGVFLDYEACTVSFFNITNHGFLIYKFSHCSFSQPVFPYLNPRKCGVPMTLCSPSS [human TRIM5α, 330-340 = QARGTRYPSFV] | – | 0.0601 ± 0.084
3 | MASGILVNVKEEVTCPICLELLTQPLSLDCGHSFCQACLTANHKKSMLDKGESSCPVCRISYQPENIRPNRHVANIVEKLREVKLSPEGQKVDHCARHGEKLLLFCQEDGKVICWLCERSQEHRGHHTFLTEEVAREYQVKLQAALEMLRQKQQEAEELEADIREEKASWKTQIQYDKTNVLADFEQLRDILDWEESNELQNLEKEEEDILKSLTNSETEMVQQTQSLRELISDLEHRLQGSVMELLQGVDGVIKRTENVTLKKPETFPKNQRRVFRAPDLKGMLEVFRELTDVRRYWVDVTVAPNNISCAVISEDKRQVSSPKPRGTRYQTFVNFNYCTGILGSQSITSGKHYWEVDVSKKTAWILGVCAGFQPDAMCNIEKNENYQPKYGYWVIGLEEGVKCSAFQDSSFHTPSVPFIVPLSVIICPDRVGVFLDYEACTVSFFNITNHGFLIYKFSHCSFSQPVFPYLNPRKCGVPMTLCSPSS [human TRIM5α, 6-codon deletion at 326] | 2.48 ± 3.4 | –
4 | MASGILVNVKEEVTCPICLELLTQPLSLDCGHSFCQACLTANHKKSMLDKGESSCPVCRISYQPENIRPNRHVANIVEKLREVKLSPEGQKVDHCARHGEKLLLFCQEDGKVICWLCERSQEHRGHHTFLTEEVAREYQVKLQAALEMLRQKQQEAEELEADIREEKASWKTQIQYDKTNVLADFEQLRDILDWEESNELQNLEKEEEDILKSLTNSETEMVQQTQSLRELISDLEHRLQGSVMELLQGVDGVIKRTENVTLKKPETFPKNQRRVFRAPDLKGMLEVFRELTDVRRYWVDVTVAPNNISCAVISEDKRQVSSPKPQIIYGARGTRYQTFVNTFVNFNYCTGILGSQSITSGKHYWEVDVSKKTAWILGVCAGFQPDAMCNIEKNENYQPKYGYWVIGLEEGVKCSAFQDSSFHTPSVPFIVPLSVIICPDRVGVFLDYEACTVSFFNITNHGFLIYKFSHCSFSQPVFPYLNPRKCGVPMTLCSPSS [human TRIM5α, 4-codon duplication at 338] | 0.0834 ± 0.017 | –
5 | MASGILVNVKEEVTCPICLELLTQPLSLDCGHSFCQACLTANHKKSMLDKGESSCPVCRISYQPENIRPNRHVANIVEKLREVKLSPEGQKVDHCARHGEKLLLFCQEDGKVICWLCERSQEHRGHHTFLTEEVAREYQVKLQAALEMLRQKQQEAEELEADIREEKASWKTQIQYDKTNVLADFEQLRDILDWEESNELQNLEKEEEDILKSLTNSETEMVQQTQSLRELISDLEHRLQGSVMELLQGVDGVIKRTENVTLKKPETFPKNQRRVFRAPDLKGMLEVFRELTDVRRYWVDVTVAPNNISCAVISEDKRQVSSPKPQIIYGARGTYCTGILGSQSITSGKHYWEVDVSKKTAWILGVCAGFQPDAMCNIEKNENYQPKYGYWVIGLEEGVKCSAFQDSSFHTPSVPFIVPLSVIICPDRVGVFLDYEACTVSFFNITNHGFLIYKFSHCSFSQPVFPYLNPRKCGVPMTLCSPSS [human TRIM5α, 9-codon deletion at 335] | 1.17 ± 0.42 | –
